# Experimental data taken from publication PMC4336329 (PLoS ONE, 2015).
# About 2,200 (0.71%) of roughly 310,000 compounds showed an effect of 50% or more. Effects have a minus sign here. This is one part of the list.
# Target: human ether-à-go-go-related gene (hERG) potassium channel (human, UniProt Q12809)
# Assay: primary screen, population patch clamp on CHO cells stably expressing hERG
# Sequence of human ether-à-go-go-related gene (hERG) potassium channel (Q12809 whole entry, looked up): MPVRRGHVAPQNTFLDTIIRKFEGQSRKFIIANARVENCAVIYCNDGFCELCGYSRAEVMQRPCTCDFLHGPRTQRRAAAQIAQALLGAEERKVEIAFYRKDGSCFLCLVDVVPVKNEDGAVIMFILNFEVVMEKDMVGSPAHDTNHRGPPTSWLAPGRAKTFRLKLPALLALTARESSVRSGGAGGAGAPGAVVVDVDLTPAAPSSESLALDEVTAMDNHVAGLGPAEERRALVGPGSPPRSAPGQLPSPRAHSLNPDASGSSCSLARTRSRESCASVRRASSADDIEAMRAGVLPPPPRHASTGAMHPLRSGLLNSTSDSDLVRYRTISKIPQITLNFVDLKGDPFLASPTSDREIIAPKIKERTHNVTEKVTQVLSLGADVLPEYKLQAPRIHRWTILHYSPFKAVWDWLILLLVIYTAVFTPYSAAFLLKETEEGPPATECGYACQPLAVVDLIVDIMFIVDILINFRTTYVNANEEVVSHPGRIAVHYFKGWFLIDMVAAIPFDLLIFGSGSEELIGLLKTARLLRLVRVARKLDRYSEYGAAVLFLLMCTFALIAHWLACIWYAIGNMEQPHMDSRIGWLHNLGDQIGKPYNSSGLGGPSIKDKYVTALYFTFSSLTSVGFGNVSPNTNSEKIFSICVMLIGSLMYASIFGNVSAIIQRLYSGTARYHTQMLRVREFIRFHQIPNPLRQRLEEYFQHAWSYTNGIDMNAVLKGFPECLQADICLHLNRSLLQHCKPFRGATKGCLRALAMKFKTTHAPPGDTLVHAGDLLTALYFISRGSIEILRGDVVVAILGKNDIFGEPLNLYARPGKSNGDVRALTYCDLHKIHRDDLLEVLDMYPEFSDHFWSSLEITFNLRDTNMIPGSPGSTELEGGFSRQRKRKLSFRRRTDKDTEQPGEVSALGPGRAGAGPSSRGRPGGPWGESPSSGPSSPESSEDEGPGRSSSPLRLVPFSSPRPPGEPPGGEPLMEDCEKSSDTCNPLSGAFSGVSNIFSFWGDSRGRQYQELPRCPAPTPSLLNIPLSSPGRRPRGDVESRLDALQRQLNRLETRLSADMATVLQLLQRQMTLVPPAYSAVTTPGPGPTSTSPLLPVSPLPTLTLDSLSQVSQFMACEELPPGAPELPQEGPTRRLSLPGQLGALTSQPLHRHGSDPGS
row,Structure (SMILES),"hERG current change (%, negative = inhibition) at 1uM [%]"
1,O=C(NC1CCCCC1NC(=O)c1ccco1)c1ccco1 (centres unmarked),18.2
2,CCn1c(Cn2nnc(-c3ccccc3)n2)nnc1SCC(=O)Nc1cccc(C)c1C,9.9
3,CC(=O)c1ccc(N2CCN(CC(=O)NC(=O)NCc3ccccc3)CC2)cc1,11.6
4,CN1CCN(C(=S)NC(=O)c2ccccc2Br)CC1,12.5
5,COc1cccc(/C=N/Nc2nc3ccccc3[nH]2)c1OC,17.2
6,CC(=O)c1cccc(S(=O)(=O)N2CCCC(c3nc(-c4ccc(C)o4)no3)C2)c1 (centres unmarked),-0.0341
7,CC(NC(=O)CCc1nnc(Cc2cccc(C(F)(F)F)c2)o1)C1CC1 (centres unmarked),6.54
8,Cc1csc(=O)n1CC(=O)OCC(=O)NCc1ccc(F)cc1,10.9
9,O=C(NCc1ccc(F)cc1)C1CCCN(S(=O)(=O)c2cccnc2)C1 (centres unmarked),5.42
10,CCCC(C)C(=O)NCc1ccc2c(c1)OCO2 (centres unmarked),14.5
11,C=CCn1c(O)c(C(C)=NCCc2c[nH]c3ccccc23)c(=O)[nH]c1=O,7.13
12,CCC(=O)Nc1cc2nn(-c3ccccc3)nc2cc1Cl,7.31
13,O=C(C[n+]1cc(Br)cc(Br)c1)c1cccc([N+](=O)[O-])c1.[Cl-],4.85
14,COc1ccc(-c2csc3ncnc(N4CCN(S(=O)(=O)c5ccccc5C#N)CC4)c23)cc1,8.67
15,CCN(CC)CCC(=O)N1c2ccccc2Sc2ccc(NC(=O)OC)cc21,-3.81
16,O=C(CCN1C(=O)C2C3C=CC(C3)C2C1=O)N1CCN(c2ccccc2Cl)CC1 (centres unmarked),-7.36
17,Cc1oc2c(cc(NS(=O)(=O)c3ccc(Cl)cc3)c3ccccc32)c1C(=O)O,7.56
18,Cc1oc(-c2ccccc2Cl)nc1CS(=O)CC(=O)NC1CC1 (centres unmarked),15.4
19,Cc1ccc(C2=N/C(=C\c3cccs3)C(=O)N2Nc2ccccc2)cc1,11.8

row,Structure (SMILES),"hERG current change (%, negative = inhibition) at 1uM [%]"
1,c1ccc(-c2onc3c2CCCC3)cc1,7.05
2,COc1ccc(/C=N/S(=O)(=O)c2cccs2)cc1,6.11
3,COC(=O)Cn1c(=NC(=O)c2cccc(OC)c2)sc2cc(OC)ccc21,2.26
4,COC(=O)CNC(=O)C1Nc2ccc(OC(F)(F)F)cc2C2C=CCC12 (centres unmarked),5.55
5,CN(C)C1=NC[C@H](Cc2ccccc2)N1CCCC1CCCC1,-56.8
6,COc1ccc(C(C)C)cc1S(=O)(=O)Nc1ccccn1,0.543
7,O=C(O)c1ccc(Cl)c(S(=O)(=O)N(Cc2ccccc2)c2ccccc2Cl)c1,14.9
8,CCn1c(=O)cc(SCC(=O)NCc2ccco2)c2ccccc21,6.5
9,COc1cccc(C2CC(c3ccccc3Cl)n3nnnc3N2)c1 (centres unmarked),5.05
10,O=C(Nc1ccc(S(=O)(=O)N2CCCCC2)cc1)c1ccc(=O)[nH]c1,12.7
11,CC(C)(C)[C@@H]1C=C(C(=O)O)O[C@H](OCCCCO)C1,14.1
12,O=C(O)c1cc2cc(OCc3ccccc3)ccc2[nH]1,16.3
13,COCCNC(=S)N1CCN(c2nc3ccccc3s2)CC1,3.61
14,O=C(O)/C=C/c1ccc(S(=O)(=O)NCc2ccco2)cc1,7.02
15,Cc1ccc(C(C)C)c(OCCNCc2ccccc2)c1.O=C(O)C(=O)O,22.1
16,O=C(CCc1nnc2ccc(NCc3ccco3)nn12)Nc1ccccn1,12.1
17,C=CCNC(=O)/C=C/c1ccc(C(C)C)cc1,4.66
18,CCOC(=O)[C@@H]1[C@H]2COc3ccc(Br)cc3[C@@H]2N2C(=O)N(c3cccc(F)c3)C(=O)[C@@]12C,10.9
19,CN(c1ccccc1C(=O)N1CCN(c2ccccc2F)CC1)S(=O)(=O)c1ccccc1,-3.29

row,Structure (SMILES),"hERG current change (%, negative = inhibition) at 1uM [%]"
1,NC(=O)C1CCN(C(=O)NC2CC(=O)N(c3ccc4c(c3)OCCO4)C2)CC1 (centres unmarked),6.84
2,CCOc1ccc(C2=NNC(c3cccnc3)=Nc3ccc(OC)cc32)cc1,10.1
3,Cc1c(NC(=O)Cn2ccc([N+](=O)[O-])n2)c(=O)n(-c2ccccc2)n1C,20.2
4,S=c1[nH]nc(Cc2ccc(Br)cc2)n1/N=C/c1ccc(Cl)cc1,2.36
5,COc1cc2c(cc1OC)C(c1cc3ccc(C)cc3[nH]c1=O)N(C(=O)c1ccco1)CC2 (centres unmarked),4.19
6,CC12CC3CC(C)(C1)CC(C(=O)NC1=NCCS1)(C3)C2,4.09
7,COc1cc(C(C)=O)ccc1Oc1ncnc2c1cnn2-c1cccc(Cl)c1,7
8,Cc1ccc(S(=O)(=O)N2CC=C(C(=O)NCc3ccc(F)cc3)CC2)cc1,0.952
9,COC(=O)c1cccc(NC(=O)CC2C(=O)NCCN2C(=O)c2ccc(F)cc2F)c1 (centres unmarked),10.5
10,Cl.OCCN1CCN(CC(O)COc2ccc3ccccc3c2)CC1 (centres unmarked),4.26
11,CCOc1ccc(-c2nc(CCl)cs2)cc1.Cl,12.9
12,NS(=O)(=O)c1ccc(NC(=O)CN2CCCc3ccccc32)cc1,10.3
13,CC(=O)O.NC(N)=N/N=C/c1c(Cl)cccc1Cl,6.48
14,CCN(CC)C(=O)Cn1cc(C(=O)C(=O)NCc2ccco2)c2ccccc21,5.23
15,CCOc1ccccc1/C=N/N1CCN(Cc2ccccc2)CC1.Cl,16.9
16,COC(CNC(=O)CSCc1nc(-c2ccc(SC)cc2)oc1C)OC,5.17
17,FC(F)(F)Oc1ccc(NC(=S)Nc2ccccc2N2CCOCC2)cc1,8.69
18,[O-]/C(=C(\C(=S)Nc1ccccc1F)[n+]1ccccc1)c1ccc(-c2ccccc2)cc1,5.99
